From PubChem BioAssay AID2147 (National Center for Advancing Translational Sciences (NCATS), 2009)
Where “and” joins values, the source holds several entries; their conditions need not be identical. Equal entries are not always repeated. Hit rate of the full screen: of about 230,000 compounds, about 3,600 (1.6%) were called active. Inconclusive means that the source gave no clear call. Such entries were picked first, then a sample of the others. Calls come from the whole dose curve; as a rule, active = well fitted inhibition curve with a large enough effect (not every such curve was filed as active); inconclusive = small, poorly fitted or top-dose-only effect, or another doubt; inactive = no such curve, though single readings can be large or run the other way. Where the call is inconclusive, the potency comes from a doubtful curve fit.

target: Lysine-specific demethylase 4E (Homo sapiens) (UniProt B2RXH2); assay: qHTS Assay for Inhibitors of Human Jumonji Domain Containing 2E (JMJD2E); details: JMJD2E catalytic domain, FDH-coupled NADH fluorescence (FDH is formaldehyde dehydrogenase); series mostly up to 57.1 µM; activity change, negative = inhibition: at the top concentration
UniProt B2RXH2, sequence (B2RXH2 whole entry, looked up, the tested form may be a part): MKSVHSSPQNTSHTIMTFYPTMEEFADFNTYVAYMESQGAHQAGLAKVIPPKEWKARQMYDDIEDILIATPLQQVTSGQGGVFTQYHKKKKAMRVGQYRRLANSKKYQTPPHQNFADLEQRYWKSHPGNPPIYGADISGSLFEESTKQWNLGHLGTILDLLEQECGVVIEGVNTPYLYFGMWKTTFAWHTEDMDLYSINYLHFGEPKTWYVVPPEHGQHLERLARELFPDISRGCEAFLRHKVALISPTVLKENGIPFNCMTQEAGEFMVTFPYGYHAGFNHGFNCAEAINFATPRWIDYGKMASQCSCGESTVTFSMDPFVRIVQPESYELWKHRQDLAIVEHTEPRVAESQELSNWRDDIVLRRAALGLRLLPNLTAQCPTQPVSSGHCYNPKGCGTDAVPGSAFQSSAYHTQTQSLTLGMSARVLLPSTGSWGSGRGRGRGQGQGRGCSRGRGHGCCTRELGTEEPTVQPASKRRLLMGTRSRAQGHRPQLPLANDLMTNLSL
Note: nearly all actives have a fitted effect of over 50% in size.
Potency is the fitted concentration of half-maximal effect; tags give direction and shape of the fitted curve.
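Throughout, for activity change, negative = inhibition: 0% = wells with enzyme and -100% = buffer wells without enzyme.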

Row | Structure (SMILES) | Potency | activity change, negative = inhibition
1 | O=C1NC(c2cccnc2)Nc2sc3c(c21)CCCC3 (stereo not drawn) | inconclusive: 35.5 µM [inhibitor, single point] | –
2 | COc1ccc(-n2c(O)c(C=NCc3ccc4c(c3)OCO4)c(=O)[nH]c2=O)cc1 | inconclusive: 39.8 µM [inhibitor, single point] | –
3 | CC(C)NC[C@H](O)c1ccc(N)c(C#N)c1 | – | inactive: 0.965%
4 | O=C(N/N=C/c1c(O)n(CCC2=CCCCC2)c(=O)[nH]c1=O)c1ccccc1 | inconclusive: 20 µM [inhibitor, partial curve] | –
5 | Nc1ncn[nH]1 | inconclusive: 28.2 µM [inhibitor, single point] | –
6 | O=c1cc(O)c2ccccc2[nH]1 | inconclusive: 39.8 µM [inhibitor, single point] | –
7 | COC(=O)C1C(O)C(C)C(O)C(C)/C=C\C=C(/C)C(=O)Nc2c(C)c(OC(C)=O)c3c(c2O)C(=O)C(C)=C2OCOC(=C23)/C(C)=C/C(C)(O)C(O)C(C)C1O (stereo not drawn) | inconclusive: 5.62 µM [inhibitor, single point] | –
8 | Nc1ccc2nonc2c1[N+](=O)[O-] | – | inactive: 6.21%
9 | c1ccc2c(N3CCNCC3)cccc2c1 | inconclusive: 25.1 µM [inhibitor, single point] | –
10 | NC(=O)c1ccc(C(=O)Nc2ccc([As](=O)(O)O)cc2)cc1 | – | inactive: -1.19%
11 | CC(C)=CCCC1(C)C=Cc2c(O)c3c(c(CC=C(C)C)c2O1)OC12C(CC4CC1C(C)(C)OC2(C/C=C(/C)C(=O)O)C4O)C3=O (stereo not drawn) | inconclusive: 39.8 µM [inhibitor, single point] | –
12 | CCCN(CCC)CCc1c[nH]c2ccc(C(N)=O)cc12 | inconclusive: 39.8 µM [inhibitor, single point] | –
13 | COc1ccccc1/C=N/N=C(/N)N[N+](=O)[O-] | inconclusive: 39.8 µM [inhibitor, single point] | –
14 | CCCOC(=O)COc1cc(C)cc2oc(=O)c3c(c12)CCC3 | inconclusive: 20 µM [inhibitor, partial curve] | –
15 | C=CCN1CCC2(C)c3cc(O)ccc3C[C@H]1[C@H]2C | – | inactive: 6.19%
16 | C=C(C)[C@H]1CN[C@H](C(=O)O)[C@H]1CC(=O)O | – | inactive: -28.8%
17 | Cc1ccc2nc(N3CCN(C)CC3)[nH]c2c1 | – | inactive: 1.58%
18 | Cc1ccc(CN(Cc2ccccc2)C(=S)NCC(=O)N2CCC3(CC2)OCCO3)o1 | – | inactive: 1.46%
19 | CC(C)c1ccc(N2C(=O)NC(=O)/C(=C/c3cnc(-c4ccccc4)nc3)C2=O)cc1 | active: 8.91 µM | –
20 | Cc1ccc(CN2CCN(Cc3ccccc3F)CC2)cc1 | active: 12.6 µM | –
21 | COc1cccc(O)c1CN1CCCC(C(=O)c2ccccc2SC)C1 (stereo not drawn) | inconclusive: 31.6 µM [inhibitor, single point] | –
22 | CSc1ccc(CN2CCN(C(=O)COc3ccc(C)cc3)CC2)cc1 | inconclusive: 35.5 µM [inhibitor, single point] | –
23 | O=c1cccc2n1CC1CC2CN2CCCC[C@H]12 (stereo partly drawn) | inconclusive: 25.1 µM [inhibitor, partial curve] | –

Row | Structure (SMILES) | Potency | activity change, negative = inhibition
24 | c1ccc(-c2cc(-c3ccccc3)[n+](-c3ccccc3)c(-c3ccccc3)c2)cc1 | inconclusive: 31.6 µM [inhibitor, single point] | –
25 | Cn1c(O)c(C(=N)COc2ccccc2)c(=O)n(C)c1=O | – | inactive: 4.72%
26 | Cc1ccc(N2C(=O)/C(=C/c3ccc(CN(CCC#N)S(C)(=O)=O)o3)C(=O)NC2=S)cc1 | inconclusive: 39.8 µM [inhibitor, single point] | –
27 | COc1cccc(-c2nc3ccc(N4CCN(C)CC4)cc3[nH]2)c1 | inconclusive: 31.6 µM [inhibitor, partial curve] | –
28 | CCCCn1c(N)c(C(=O)OCCOC)c2nc3ccccc3nc21 | inconclusive: 28.2 µM [inhibitor, partial curve] | –
29 | O=C(c1cccn2c(=O)c3cc(Br)ccc3nc12)N1CCC2(CC1)OCCO2 | inconclusive: 1.78 µM [inhibitor, partial curve] | –
30 | Cc1ccc(-n2nc(C)cc2NC(=O)COc2cc(C)cc3oc(=O)c4c(c23)CCC4)cc1 | inconclusive: 28.2 µM [inhibitor, partial curve] | –
31 | CN(C)C1C(=O)C(C(N)=O)=C(O)[C@@]2(O)C(=O)C3=C(O)c4c(O)cccc4[C@@](C)(O)C3[C@H](O)C12 (stereo partly drawn) | active: 2 µM | –
32 | C=CCN1C(=O)NC(=O)/C(=C/c2ccc(OC)c(CSc3ccccn3)c2)C1=O | – | inactive: -22.5%
33 | CC(C)COP(=O)(c1ccc(N(C)C)cc1)C(Nc1ccccc1)c1ccccc1 (stereo not drawn) | inconclusive: 39.8 µM [inhibitor, single point] | –
34 | CC(C)Oc1cccc(NC(=O)c2cccn(Cc3ccc4c(c3)OC(F)(F)O4)c2=O)c1 | inconclusive: 39.8 µM [inhibitor, single point] | –
35 | CCCCCn1c(N)c(C(=O)NCc2cccs2)c2nc3ccccc3nc21 | inconclusive: 31.6 µM [inhibitor, partial curve] | –
36 | Nc1c(C(=O)OC2CCCCC2)c2nc3ccccc3nc2n1CC1CCCO1 (stereo not drawn) | inconclusive: 31.6 µM [inhibitor, partial curve] | –
37 | Nc1ccccc1C(=O)OCC(=O)N1CCc2ccccc21 | inconclusive: 31.6 µM [inhibitor, partial curve] | –
38 | Nc1c(C(=O)NCCc2ccccc2)c2nc3ccccc3nc2n1CCN1CCOCC1 | inconclusive: 25.1 µM [inhibitor, partial curve] | –
39 | CC(Cc1ccccc1)NCC(=O)Nc1cc(N(C)C)nc2ccccc12 (stereo not drawn) | inconclusive: 31.6 µM [inhibitor, partial curve] | –
40 | O=c1[nH]c(=O)n(Cc2ccco2)c(O)c1C=NCCN1CCOCC1 | – | inactive: 7.9%
41 | CCOc1ccccc1N1C(=O)NC(=O)/C(=C/c2ccc3c4c(cccc24)CC3)C1=O | inconclusive: 28.2 µM [inhibitor, partial curve] | –
42 | C=CCc1cc(C=C2C(=O)NC(=O)NC2=O)cc(OC)c1OCc1ccc(C(=O)O)cc1 | inconclusive: 25.1 µM [inhibitor, single point] | –
43 | C[C@H]1CC[C@H]2NCCN[C@H]2C1 | – | inactive: 2.14%
44 | C/C(O)=C(/C#N)C(=O)Nc1cc(Br)ccc1Br | – | inactive: -7.98%
45 | CCOc1cccc(=NC2CCCCC2)c2c(C)n(C)c(C)c12 | – | inactive: 8.01%
46 | C[C@H]1O[C@H](O[C@H]2[C@H](O)[C@@H](O)[C@@H](O)[C@H](O)[C@@H]2O)[C@@H](N)C[C@@H]1NC(=N)C(=O)O | – | inactive: 1.04%

Row | Structure (SMILES) | Potency | activity change, negative = inhibition
47 | COc1ccc(CCn2c(NN=C3CCCCC3)nc3c2c(=O)[nH]c(=O)n3C)cc1 | inconclusive: 31.6 µM [inhibitor, partial curve] | –
48 | CC1Oc2cc3c(-c4c(O)cc(O)c5c(O)c6c(cc45)OC(C)C(C)C6=O)c(O)cc(O)c3c(O)c2C(=O)C1C (stereo not drawn) | active: 20 µM | –
49 | CCc1nc(CNC(=O)c2cc(OC)c(OC)c(OC)c2)no1 | inconclusive: 22.4 µM [inhibitor, single point] | –
50 | Cc1ccc(Cn2c(C)c3cnn(CC(=O)N4CCC5(CC4)OCCO5)c(=O)c3c2C)cc1 | inconclusive: 31.6 µM [inhibitor, single point] | –
51 | N#CC1=C(N)Oc2c(c(=O)oc3ccccc23)C1c1ccc(OC(=O)N2CCOCC2)cc1 (stereo not drawn) | inconclusive: 28.2 µM [inhibitor, partial curve] | –
52 | CCC(=NCCc1c[nH]c2ccccc12)c1c(O)n(-c2ccc(C)cc2)c(=O)[nH]c1=O | inconclusive: 35.5 µM [inhibitor, single point] | –
53 | O=[N+]([O-])c1cc(O)c(O)c([N+](=O)[O-])c1 | active: 7.94 µM and active: 20 µM and active: 10 µM | –
54 | NS(=O)(=O)c1ccc(N=Cc2c(O)n(-c3ccccc3)c(=O)[nH]c2=O)cc1 | inconclusive: 14.1 µM [inhibitor, single point] | –
55 | CN1CCc2nc3sc(C(=O)NC4CC4)c(N)c3cc2C1 | inconclusive: 7.08 µM [inhibitor, single point] | –
56 | CCC(C)N1C(=O)NC(=O)C2(Cc3cc(C)ccc3N(C)C2)C1=O (stereo not drawn) | – | inactive: 0.875%
57 | O=Cc1cn(Cc2cccc([N+](=O)[O-])c2)c2ccccc12 | – | inactive: 5.08%
58 | C=CCN1C(=O)NC(=O)C(Cc2ccc(OC)c(OC)c2)C1=O (stereo not drawn) | inconclusive: 28.2 µM [inhibitor, single point] | –
59 | O=c1[nH]c2ccccc2c(=O)n1-c1cccc(Cl)c1 | inconclusive: 39.8 µM [inhibitor, single point] | –
60 | O=C(N/N=C/c1c(O)n(C2CC2)c(=S)[nH]c1=O)c1ccccc1O | inconclusive: 25.1 µM [inhibitor, single point] | –
61 | O=C(O)Cc1cccnc1C(=O)O | active: 1.58 µM | –
62 | CCC(C)NC(=O)c1c(N)n(Cc2ccc3c(c2)OCO3)c2nc3ccccc3nc12 (stereo not drawn) | inconclusive: 28.2 µM [inhibitor, partial curve] | –
63 | CN(C)C(Cc1ccc(C#N)cc1)C(=O)c1ccccc1 (stereo not drawn) | inconclusive: 39.8 µM [inhibitor, single point] | –
64 | CC(=O)Nc1cccc([As](=O)(c2cccc(NC(C)=O)c2)c2cccc(NC(C)=O)c2)c1 | – | inactive: -2.37%
65 | CC(C)OCCCNC(=O)c1c(N)n(CC2CCCO2)c2nc3ccccc3nc12 (stereo not drawn) | inconclusive: 28.2 µM [inhibitor, partial curve] | –
66 | O=[N+]([O-])O[C@H]1CO[C@H]2[C@H]1OC[C@@H]2O[N+](=O)[O-] | – | inactive: -0.775% [at 25.5 µM]
67 | O=C1NC(=O)N(Cc2ccco2)C(=O)/C1=C/c1ccc(-c2cccc([N+](=O)[O-])c2)o1 | inconclusive: 39.8 µM [inhibitor, single point] | –
68 | O=C(Nc1ccc(OC(F)(F)F)cc1)Oc1ccccc1N1CCCCC1 | inconclusive: 35.5 µM [inhibitor, single point] | –
